Source: PubChem BioAssay AID1645882 (National Center for Advancing Translational Sciences (NCATS), 2021)
About 120 (0.75%) of roughly 16,000 compounds were called active. Not shown: some 4% with an inconclusive outcome. Calls follow the shape of the dose curve; as a rule, active = well fitted inhibition curve with a large enough effect; inconclusive = small, poorly fitted or top-dose-only effect; inactive = no such curve, though single readings can be large or run the other way. This is one part of the list. *1 amine or outer side, *2 acyl side, *3 side chain or, on linkers, in order; H or OH if unused. Where a SMILES comes first, the peptide text is derived from it. Bridges are numbered along the chain shown (N, C = ends). Roman numbers before positions name the chains, in order. [ ]: non-standard residue; d: D form. Actinocin(9to1) = Cc1c2oc3c(C)ccc(C(=O)[*:1])c3nc-2c(C(=O)[*:2])c(N)c1=O; NMeV = CN[CH](C(=O)O)C(C)C; Sar = CNCC(=O)O

The compounds below were run against Rap guanine nucleotide exchange factor 3 (Homo sapiens) (UniProt O95398) (assay: Validation qHTS for antagonist of cAMP-regulated guanine nucleotide exchange factor 3 (EPAC1)). Conditions: EPAC1 Rap1B-BODIPY-GDP exchange, fluorescence; series mostly up to 150 µM; activity change, negative = inhibition: at the top concentration.
Summary of the method: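 EPAC1 (100 nM) mixed with 250 nM RAP1B-BODIPY-GDP and 50 uM GDP; compounds in concentration series, 5 min at room temperature. Fluorescence (ex 480/em 540 nm) read every 5 min for 30 min; normalized to ATA control and DMSO.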
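Also: plate controls were DMSO for no effect and ATA control for full effect; nearly all actives have a fitted effect of over 75% in size.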

UniProt O95398, sequence (O95398 whole entry, looked up): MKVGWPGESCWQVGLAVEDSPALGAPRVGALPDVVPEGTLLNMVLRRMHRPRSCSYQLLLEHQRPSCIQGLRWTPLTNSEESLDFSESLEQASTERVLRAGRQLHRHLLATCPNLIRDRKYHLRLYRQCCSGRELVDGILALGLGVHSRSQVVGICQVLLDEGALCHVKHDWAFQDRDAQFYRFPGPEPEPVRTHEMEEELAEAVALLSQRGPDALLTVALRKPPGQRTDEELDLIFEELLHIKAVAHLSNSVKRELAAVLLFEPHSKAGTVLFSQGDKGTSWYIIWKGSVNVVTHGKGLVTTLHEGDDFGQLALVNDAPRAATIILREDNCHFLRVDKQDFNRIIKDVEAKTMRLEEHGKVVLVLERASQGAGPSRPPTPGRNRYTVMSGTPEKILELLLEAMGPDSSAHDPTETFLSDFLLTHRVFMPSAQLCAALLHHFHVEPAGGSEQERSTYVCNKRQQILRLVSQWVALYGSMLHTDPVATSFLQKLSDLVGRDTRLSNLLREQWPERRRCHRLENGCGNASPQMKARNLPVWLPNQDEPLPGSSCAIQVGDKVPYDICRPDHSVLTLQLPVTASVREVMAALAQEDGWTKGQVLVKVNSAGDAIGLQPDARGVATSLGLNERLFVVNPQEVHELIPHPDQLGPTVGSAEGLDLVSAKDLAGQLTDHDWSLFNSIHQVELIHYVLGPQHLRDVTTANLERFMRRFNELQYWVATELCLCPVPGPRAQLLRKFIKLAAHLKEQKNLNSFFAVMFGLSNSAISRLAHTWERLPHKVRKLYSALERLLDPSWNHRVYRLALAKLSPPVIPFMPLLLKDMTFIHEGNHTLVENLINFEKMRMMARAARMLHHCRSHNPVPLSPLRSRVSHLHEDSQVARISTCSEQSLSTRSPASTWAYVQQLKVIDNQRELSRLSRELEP

Activity change, negative = inhibition, inactive:
CN(C)C(=O)c1ccc(-c2ccc3ncnc(NC4CCNCC4)c3c2)cc1 4.76%
Cc1nc2cnc(Nc3ccccc3)nc2n(Cc2ccc(F)cc2)c1=O -9.88%
COc1cc2c(cc1OC)/C(=C/c1ccc(N(C)C)cc1)C=C2 5.15%
c1ccc2c(c1)CCC[C@H]2Nc1nc2ccccc2[nH]1 4.65% [at 75.8 µM]
NCCCC[C@H](N[C@@H](CCc1ccccc1)C(=O)O)C(=O)N1CCC[C@H]1C(=O)O -1.21% [at 75.8 µM]
NC1(C(=O)O)CCCC1 15.5%
O=C(/C=C/c1ccccn1)NCC1Cc2cccc(-c3ncccn3)c2O1 (stereo unspecified) 18.1%
CO[C@H]1[C@H](NC(=O)c2ccsc2)c2ccccc2C12CCN(Cc1cnn(C)c1C)CC2 -14.7%
COCC(=O)Nc1cc(C(=O)N2CCN(c3ccccc3)CC2C)c2c(c1)nc(-c1ccncc1)n2C (stereo unspecified) 15.6%
Cc1ccc(CN2CCOc3ccc(C(C)(O)COc4ccccc4)cc3C2)o1 (stereo unspecified) 14%
CC(C)CN1CC[C@@]2(CCCN(C(=O)c3cnccn3)C2)C1 4.51%
CSc1ccc(-c2ccc(C(=O)NCC3CCCO3)c(N3CCC(O)CC3)n2)cc1 (stereo unspecified) 21.5%
COc1cccc(Nc2ncc3nc(-c4ccccc4)c(=O)n(C4CC4)c3n2)c1 -1.83%
O=c1c(O)c(-c2ccc(O)c(O)c2)oc2c(OC3OC(CO)C(O)C(O)C3O)c(O)cc(O)c12 (stereo unspecified) -23.5%
COc1ccc(NC(=O)c2ccc(-c3ccc(-c4noc(C)n4)cc3C)cc2)cc1OCCN(C)C
N#Cc1ccc(CN2CC[C@@]3(CCCN(C(=O)c4cccc(F)c4)C3)C2)cc1 -1.06%
FC(F)(F)c1ccccc1-n1ccnc1
CC1CN(CC(=O)NCc2ccc3c(c2)OCO3)Cc2cc(Cl)ccc2O1 (stereo unspecified) 14.4%
COc1ccc2[nH]cc(CCNc3nc(-c4ccoc4)nc4ccccc34)c2c1 6.63%
COc1ccc(N2C(=O)[C@@H]3C[C@H]2CN3Cc2cccn2-c2ccccn2)cc1Cl 13.8%
Cc1cc2ccc(=O)oc2cc1OC[C@@H](O)C(C)(C)O -3.76%
CCCCOC(=O)NS(=O)(=O)c1sc(CC(C)C)cc1-c1ccc(Cn2c(CC)nc3c(C)cc(C)nc32)cc1 -10.5% [at 75.8 µM]
O=C(Cc1cccs1)N[C@@H]1C(=O)N2C(C(=O)[O-])=C(C[n+]3ccccc3)CS[C@H]12 -26.4%
Cn1nccc1C(=O)NCC1CCC2(CCN(Cc3ccc(-c4ccc(Cl)cc4)o3)CC2)O1 (stereo unspecified) 1.75%
CC(C)=O 0.564%
Cn1cc(CN2CCOc3ccc(C(O)C4CCCCC4)cc3C2)cn1 (stereo unspecified) -4%
COC(=O)[C@@H]1CCCN1Cc1ccc2c(c1)CN(Cc1cccn1-c1ccc(Cl)cn1)CCO2 -0.331%
O=c1c(-c2ccc(Cl)cc2)nc2cncnc2n1Cc1ccccc1Cl -0.603%
CO/N=C(\C(=O)N[C@@H]1C(=O)N2C(C(=O)O)=C(CSc3nc(=O)c(O)nn3C)CS[C@H]12)c1csc(N)n1 20.9%
NC(=O)CC[C@@H](N)C(=O)O 14.8%
Cc1cc(C(=O)NCC2CCC3(CCN(Cc4ccc5ccccc5c4)CC3)O2)n(C)n1 (stereo unspecified) -6.61%
CN(C)c1ccc(C=O)c(O)c1 -22%
Oc1ccccc1O 10.3% [at 75.8 µM]
N[C@@H](C(=O)O)c1ccc(P(=O)(O)O)cc1 -3.59%
O=C(NCC1CCC2(CCN(Cc3cccc4cccnc34)CC2)O1)c1ccco1 (stereo unspecified) -3.34%
O=C1CCN(Cc2ccccc2)CCN1CCOc1ccccc1 2.55%
C[C@@H]1CCC2[C@](C)(CO)[C@@H](O)CC[C@]2(C)[C@]12CCC(CO)(CCO)O2 (stereo partly specified) 28.8%
Cc1cccc(CNC(=O)c2cnn(-c3ncc(C)c(-c4cccs4)n3)c2C2CC2)n1 14.4%
COc1ncc2nc(C)c(=O)n(CCC#N)c2n1 22.9%
Cc1cc2c(c(-c3nc4ccccc4s3)c1)OC(CNC(=O)CCc1cccnc1)C2 (stereo unspecified) 6.96%
CCNc1ncc2nc(CCc3ccccc3)c(=O)n(C[C@H]3CCCO3)c2n1 9.25%
CCOc1cc(-c2nccc3cc(OC)c(OC)cc23)cc(OCC)c1OCC -5.14%
Cc1ccc2c(Br)cc(Br)c(O)c2n1 6.59%
COc1ccccc1CCn1c(=O)c(-c2ccc(F)cc2)nc2cncnc21 9.44%
CC(CC=O)CCCC(C)(C)O (stereo unspecified) 18.9%
COc1cc(-c2nc(C)cnc2C)cc2c1OCCN(C(=O)Cn1nc(-c3ccccc3)c3ccccc3c1=O)C2 16.9%
CCNc1ncc2nc(-c3ccccc3)c(=O)n(CCOC)c2n1 3.09%
COCC(=O)N1CCC2(CCN(Cc3ccc(C#N)cc3)CC2)CC1 10.3%
Cc1ccc(S(=O)(=O)NC(=O)NC2CCCC2)cc1 14.1%
O=C(N[C@@H](Cc1ccccc1)C(=O)CCl)OCc1ccccc1 0% [at 75.8 µM]
COc1ccc2c(c1)[C@]1(C)CCC(=O)C[C@H]1CC2 -10.2%
COc1ccccc1/C=C\C(=O)OC[C@@H]1CCCN2CCCC[C@H]12 3.69%
Cc1cc2c(cc1Cl)N(C(=O)Nc1ccc(Oc3cccnc3C)nc1)CC2 -0.589% [at 75.8 µM]
O=C(c1cccnc1)C1CCCN(Cc2ccc3c(c2)CN(C(=O)c2ccc4[nH]ccc4c2)CCO3)C1 (stereo unspecified) 9.24%
Cc1scc2c1N(C(=O)CN1CCN(C)CC1)c1ccccc1NC2=O
O=c1c(O)c(-c2ccc(O)c(O)c2)oc2c(OC[C@@H]3O[C@@H](O)[C@@H](O)[C@H](O)[C@H]3O)c(O)cc(O)c12 -6.8%
COCCNc1ncnc2ccc(-c3ccccc3C)cc12 20.3%
c1ccc(C2CN3CCSC3=N2)cc1 (stereo unspecified)
COc1cccc(-c2cc(=O)c3cc(O)ccc3o2)c1 16.5%
COC(=O)c1c(OCc2cccnc2)cc(=O)n2c1CCN(C(=O)c1ccc(OC)c(F)c1)CC2 1.96%
COCC(=O)Nc1cc(C(=O)N2CCCC(C(C)=O)C2)cc2nc(-c3ccccc3)n(C)c12 (stereo unspecified) -5.97%
COc1cc2cc3c4cc(OC)c(OC)cc4cc[n+]3c(C)c2cc1OC -7.16%
Cc1c2oc3c(C)ccc(C(=O)NC4C(=O)NC(C(C)C)C(=O)N5CCCC5C(=O)N(C)CC(=O)N(C)C(C(C)C)C(=O)OC4C)c3nc-2c(C(=O)NC2C(=O)NC(C(C)C)C(=O)N3CCCC3C(=O)N(C)CC(=O)N(C)C(C(C)C)C(=O)OC2C)c(N)c1=O (stereo unspecified) (I: TVP[Sar][NMeV] / II: TVP[Sar][NMeV]; ester I:1-I:C, II:1-II:C; linker I:N-II:N via Actinocin(9to1); configuration not given here) 1.27% [at 75.8 µM]
CC(COc1ccc(/C=C/c2ccccc2)cc1)[N+](C)(C)C (stereo unspecified) 0.993% [at 75.8 µM]
O=c1cnc2cncnc2n1Cc1ccccc1Cl -10.8%
CN(C)c1ccc(/C=C/N2C=CCc3c2ccc2ccccc32)cc1 -21.6%
O=c1c(-c2cc(F)cc(F)c2)nc2cnc(N3CCNCC3)nc2n1CCc1ccccc1 0.84%
C#CCCCCCCCCCCCC(=O)CC(O)COC(C)=O (stereo unspecified) 15.6%
COc1ccc(C(=O)N2CCC3(CC2)CN(c2cccc(-c4ccccc4)c2)C3)cc1 -6.99%
C[C@H]1[C@H](C)CC[C@]2(C(=O)O)CC[C@]3(C)C(=CCC4[C@@]5(C)C[C@@H](O)[C@H](O)[C@@](C)(CO)[C@@H]5CC[C@]43C)[C@H]12 (stereo partly specified) -11.5%
O=C(Oc1ccccc1)N1CCC2(CCCN(c3ccc(-c4ccccc4)cc3)C2)CC1 2.81%
CCC1CN(CCNC(=O)c2ccc3c(c2)OCO3)Cc2cc(OC)ccc2O1 (stereo unspecified) -7.49%
Nc1cnccn1 15.9%
O=C1CCN(Cc2ccccc2)S(=O)(=O)c2ccc(F)cc21 10.1%
CC[N+]1(C)C2CCC1CC(OC(=O)[C@H]1CCC(C(=O)OC3CC4CCC(C3)[N+]4(C)CC)(c3ccccc3)c3ccccc31)C2 (stereo partly specified) 14.3%
Cc1cc2c(c(-c3ccc(Cl)cc3)c1)OC(CNC(=O)CCC(=O)N(C)C)C2 (stereo unspecified) -7.43%
COc1ccc(NC(=O)/C=C/c2ccc(Cl)cc2)cc1 -5.73% [at 75.8 µM]
CCCCCCCCCCCCCCCC(=O)OC[C@@H](COP(=O)([O-])OCC[N+](C)(C)C)OC(=O)CCCCCCCCCCCCCCC 20.1%
CNC(=O)c1cc2c(cn1)[nH]c1ccccc12
Cc1cc(=O)oc2cc(O)ccc12 12.9% [at 75.8 µM]
COC(=O)C1CCCCN1Cc1ccc2c(c1)CN(C(=O)c1ccc(F)cc1)CCO2 (stereo unspecified) 17.7%
COc1ncc2nc(C)c(=O)n(C3CC3)c2n1 1.4%
CCC1CN(CCNC(=O)c2cccc(C)n2)Cc2cc(OC)ccc2O1 (stereo unspecified) 8.12%
Cn1cc(-c2nc3cncnc3n(-c3ccccc3)c2=O)c2ccccc21 23%
CCC(COC)NC(=O)c1cnn(-c2ncc3c(n2)-c2ccccc2CCC3)c1C (stereo unspecified) 2.87%
Cc1nc2ccccc2n1Cc1ccc(Cl)cc1 13.2%
COc1ccccc1-c1ccc2ncnc(Nc3ccccc3)c2c1 -13.3%
CN(C)c1ccc(-c2cncnc2N(C)Cc2ccco2)cc1 -4.56%
Cc1cn2c(=O)c3ccccc3nc2n2c(=O)c3ccccc3nc12 11.9%
Cc1cc(CNC(=O)c2cnn(-c3nccc(-c4cc(C)sc4C)n3)c2C2CC2)on1 7.13%
CSc1nc(NC2CCCC2)c([N+](=O)[O-])c(NC2CCCC2)n1 -2.9%
O=C(O)c1cccs1 19.9%
CC(=O)C[C@H]1c2cc(C(F)(F)F)ccc2S(=O)(=O)N1C1CCCC1 9.95%
CCc1nc2cc(C(=O)NC3CCOC(C)(C)C3)cc(NC(=O)c3ccccc3OC)c2n1C (stereo unspecified) 14.3%
CC(=O)N1CCC2(CC1)CN(c1cccc(-c3ccccc3)c1)C2 4.97%
CCCN[C@H]1CCc2nc(N)sc2C1 13.1%
COc1ccc2c(c1)OC/C(=C/c1ccc(O)c(O)c1)C2=O 13.8%
C[n+]1ccc(C(c2c[nH]c3ccccc23)c2cc[n+](C)c3ccccc23)c2ccccc21 -13.5%
CCC(=O)N1CCN(C(=O)c2ccccc2)CC1 19.9% [at 75.8 µM]
CN(C)Cc1ccccc1-c1nccc(N(C)C)n1 26%
CC(=O)c1ccc(S(=O)(=O)NC(=O)NC2CCCCC2)cc1
